About 300 (0.091%) of roughly 330,000 compounds were called active. Inconclusive means that the source gave no clear call. Such entries were picked first, then a sample of the others. Calls follow the shape of the dose curve; as a rule, active = well fitted inhibition curve with a large enough effect; inconclusive = small, poorly fitted or top-dose-only effect, or effect the other way, or another doubt; inactive = no such curve, though single readings can be large or run the other way. Potencies of inconclusive entries are left out as doubtful fits.
target: Lysosomal acid glucosylceramidase (Homo sapiens) (UniProt P04062); assay: qHTS Assay for Inhibitors and Activators of N370S glucocerebrosidase as a Potential Chaperone Treatment of Gaucher Disease; conditions: N370S GC spleen homogenate, 4MU-glucoside fluorescence; activity change, negative = inhibition: at 59.4 µM (top of the series) unless noted;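 as to activity change, negative = inhibition: 0% = full enzyme activity and -100% = no enzyme basal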
Potency is read from the fitted curve at half-maximal effect.

SMILES | Potency | activity change, negative = inhibition
O=C(CCNc1ccc(F)cc1)c1cc2ccccc2o1 | inactive | –
COc1ccccc1[C@@H]1C(c2cccc(C)c2)=NN(c2ccc(Br)cc2)[C@H]1C(=O)N1CCOC1=O | inconclusive [activator, single point] | –
CN(C)CCOc1ccc(Cl)cc1C(C)(C)C | inconclusive [inhibitor, partial curve, poor fit] | –
COC(=O)c1ccc2c(C)c(C(C)(C)O)[nH]c2c1 | inconclusive [activator, single point] | –
CCOC(=O)c1ccc(NC(=O)COc2ccc(CNCCO)cc2OCC)cc1 | inconclusive [inhibitor, single point] | –
CCCCC[C@H](O)/C=C/[C@@H]1[C@H]2C/C(=C/CCCC(=O)O)C[C@H]2C[C@H]1O | inconclusive [activator, partial curve] | –
CCOC(=O)Cc1csc(NC(=O)CSc2nnc(C(C)C)n2C)n1 | inconclusive [inhibitor, full curve, poor fit] | –
CCc1ccc(NC(=O)NNC(=O)c2ccc3ccccc3c2O)cc1 | inconclusive [activator, single point] | –
Cc1csc2ncc(C(=O)NCCc3ccccc3)c(=O)n12 | inconclusive [activator, single point] | –
Cc1ccc(C2c3[nH]c4ccccc4c3C[C@H]3C(=O)N(c4ccccc4C(=O)NCCN4CCOCC4)C(=O)N23)cc1 (stereo not given in full) | inconclusive [inhibitor, single point] | –
COc1cc2ccccc2cc1C(=O)N/N=C/c1ccc2c(c1)OCO2 | inconclusive [activator, single point] | –
COc1cc(CC(NC(C)=O)C(=O)NC2CCN(C(=O)Nc3ccccc3Cl)CC2)cc(OC)c1 (stereo not given) | inconclusive [inhibitor, partial curve, poor fit] | –
Cc1cc(C(=O)CSc2nc3ccccc3o2)c(C)n1C1CC1 | inconclusive [activator, partial curve] | –
CCCCOc1ccc(C(=O)Nn2c(-c3cccs3)nc3ccccc3c2=O)cc1 | inconclusive [activator, single point] | –
O=C(NNC(=O)c1cc2cc(Br)ccc2oc1=O)c1ccc(O)cc1 | inconclusive [inhibitor, single point] | –
O=C1CCCC2=C1C(c1cn(-c3ccccc3)nc1-c1cccs1)c1c([nH]c(=O)[nH]c1=O)N2 (stereo not given) | inconclusive [inhibitor, single point] | –
COc1ccccc1C(=O)Nc1ccc(-c2nnn(CC(=O)N3CCN(C(=O)c4ccco4)CC3)n2)cc1 | – | inconclusive: 31.9% [activator]
O=C(/C=C/c1ccc(O)cc1)OCc1occc(=O)c1O[C@@H]1OC(CO)[C@@H](O)[C@H](O)[C@@H]1O (stereo not given in full) | inconclusive [activator, partial curve] | –
CCNC(=O)CN1C(=O)NC2(CCCc3cc(OC)ccc32)C1=O (stereo not given) | inconclusive [inhibitor, single point] | –
CCOC(=O)N1CCN(C(=S)Nc2ccc3nc(N4CCN(CC)CC4)cc(C)c3c2)CC1 | inactive | –
C=CCN1CCN(C(c2cccc(OC)c2OC)c2nnnn2CCC(C)C)CC1 (stereo not given) | inconclusive [inhibitor, single point] | –
Cc1cc(C)c2c(=O)c3c(oc2c1)C(=O)N(CCO)C3c1cccc(O)c1 (stereo not given) | inconclusive [inhibitor, partial curve] | –

SMILES | Potency | activity change, negative = inhibition
COc1ccc(C2=Nn3c(nnc3-c3ccc(OC)cc3OC)SC2)c(OC)c1 | inactive | –
COc1ccc(CCNCc2cc(C)n(-c3ccc(OC)cc3)c2C)cc1 | inconclusive [inhibitor, single point] | –
CC1(c2ccc(NC(=O)c3ccccc3F)cc2)CC1(Cl)Cl (stereo not given) | inconclusive [activator, single point] | –
CCOc1ccc(-c2nnc3ccc(SCC(=O)Nc4nc5ccc(C)cc5s4)nn23)cc1 | inconclusive [activator, partial curve] | –
Cc1cc(NC(=O)c2sc3ccccc3c2O)no1 | inconclusive [activator, single point] | –
CCc1c(O)cc2n(c1=O)-c1ccc(Cl)cc1C2(C)C | inconclusive [inhibitor, single point] | –
O=C(OCCNc1ccc(C(F)(F)F)cc1[N+](=O)[O-])c1cc2ccccc2oc1=O | inconclusive [activator, single point] | –
CCC(=O)N1CCc2cc(S(=O)(=O)NCCC(=O)N3CC=C(c4ccccc4)CC3)ccc21 | inconclusive [inhibitor, single point] | –
CCn1c(SCC(=O)Nc2cccc(C)c2)nc2ccccc2c1=O | inconclusive [activator, single point] | –
O=C(COc1ccccc1Cl)NCc1ccncc1 | – | inconclusive: 26.3% [activator]
CC(C)CNC1=C(C(=S)Nc2ccccc2)C(=O)CC(C)(C)C1 | inconclusive [activator, partial curve, poor fit] | –
CCOc1ccccc1NC(=O)CSc1nc2ccccc2c(=O)n1CC1CCCO1 (stereo not given) | inconclusive [activator, single point] | –
CCC1(C)C(Nc2c(C)cccc2C)=NC(=S)N1c1ccc(NC(C)=O)cc1 (stereo not given) | – | inconclusive: 31% [activator]
CSCC[C@H](NC(=O)[C@H](Cc1ccccc1)n1c(=O)[nH]c2ccccc2c1=O)C(=O)NCC1CCC(C(=O)O)CC1 (stereo not given in full) | inconclusive [activator, single point] | –
O=S(=O)(NCC(c1ccccc1)N1CCNCC1)c1ccc(Cl)cc1 (stereo not given) | inconclusive [inhibitor, single point] | –
Cc1nn(-c2ccccc2)c2[nH]c(=O)c(CNc3ccc(N4CCOCC4)cc3)cc12 | inactive | –
COc1ccc(N(CC(=O)N/N=C/c2ccco2)S(=O)(=O)c2ccccc2)cc1Cl | inconclusive [activator, partial curve] | –
O=c1[nH]c2cc(Cl)c(O)cc2o1 | inactive | –
CC1=CC(C)(C)NC(=S)N1c1cccc2cc(S(=O)(=O)O)ccc12 | inactive | –
CCN(CC)CCNC(=O)CCc1c(C)nc2c(c(C)nn2-c2ccc(C)cc2)c1C | inconclusive [inhibitor, single point] | –
Cc1ccc(CNC(=O)C(Cc2ccccc2)NS(=O)(=O)c2ccc(Br)s2)cc1 (stereo not given) | inconclusive [activator, partial curve] | –
Cc1ccc(C)c(-c2nn(-c3cc(N4CCN(CCO)CC4)ccc3[N+](=O)[O-])c(=O)c3ccccc23)c1 | active: 15.8 µM | –

SMILES | Potency | activity change, negative = inhibition
O=C(Oc1ccc2ccc(=O)oc2c1)c1ccco1 | inconclusive [activator, partial curve] | –
Cc1ccc(S(=O)(=O)N(C)C)cc1-n1c(SCC(=O)Nc2ccccc2)nc2ccccc2c1=O | inconclusive [activator, partial curve] | –
Cc1ccc(NC(=O)CSc2ccc(-c3ccco3)nn2)cc1 | inconclusive [activator, partial curve] | –
COc1ccc(C(=O)COC(=O)c2cc(=O)[nH]c3ccccc23)c(OC)c1 | inactive | –
Cc1oc(-c2ccccc2Cl)nc1CS(=O)CC(=O)NCCCN1CC(C)CC(C)C1 (stereo not given) | inconclusive [inhibitor, single point] | –
COc1cccc(NC(=O)COc2cc(C)cc3oc(=O)cc(C)c23)c1 | inconclusive [activator, single point] | –
CCN(CC)c1ccc(/C=N/NC(=O)C2CC2)cc1 | inconclusive [activator, single point] | –
Cc1cccc(C)c1NC(=S)NCCc1ccc(O)c(O)c1 | inactive | –
CCOC(=O)c1[nH]c2ccc(OC)cc2c1NC(=O)CCN1CCC(C)CC1 | inactive | –
CCN(CC(=O)Nc1c(F)cccc1F)C(=O)c1cc(S(=O)(=O)N2CCOCC2)ccc1N1CCCC1 | inactive | –
COc1ccc(-n2c(C)cc(/C=C3\SC(=O)NC3=O)c2C)cc1 | inactive | –
CCCC(=O)NC(=S)Nc1ccc(NC(=O)c2cccs2)cc1 | inconclusive [inhibitor, single point] | –
CSc1nnc2n(C)c3c(c(=O)n12)C1(CCCC1)Cc1ccccc1-3 | inactive | –
CCCN(CC(=O)Nc1ccc(Cl)cc1Cl)Cc1cc(=O)n2ccsc2n1 | inconclusive [activator, partial curve] | –
Nc1nc(N2CCCCC2)nc2ccccc12 | inconclusive [activator, single point] | –
CC(C)C1CC(CCN)(c2ccccc2)CCO1 (stereo not given) | inconclusive [inhibitor, partial curve, poor fit] | –
CCC(C)(C)c1ccc(OC(=O)c2cccnc2Cl)cc1 | inconclusive [activator, single point] | –
CC(C)Oc1ccc(C(=O)NC2CCS(=O)(=O)C2)cc1 (stereo not given) | inactive | –
O=C(N/N=C/C(Br)=C\c1ccccc1)c1ccco1 | inactive | –
Cc1ccc(C2CC(c3cccs3)=NN2C(=O)c2ccco2)o1 (stereo not given) | inconclusive [activator, partial curve, poor fit] | –
COc1ccc(CN2CCN(C(=O)CC(C)C)CC2)cc1OC | inconclusive [inhibitor, single point] | –

From PubChem BioAssay AID2101 (National Center for Advancing Translational Sciences (NCATS), 2009)
